The list shows a part of the results.
molecular target: T1, MBP-FoxP1dN (Mus musculus, UniProt P58462 326-579); experiment: PD-seq (MBP pull-down with sequencing); 20 mM Tris-HCl pH 7.5, 100 mM NaCl, 1.5 mM MgCl2, 0.4 uM protein, 0.1 uM dsDNA library, 30 min, room temperature, amylose pull-down; high values mean tight binding; settings: protein: recombinant; tags: His6-MBP; chain copies: 2; dsDNA, one strand shown
T1 sequence: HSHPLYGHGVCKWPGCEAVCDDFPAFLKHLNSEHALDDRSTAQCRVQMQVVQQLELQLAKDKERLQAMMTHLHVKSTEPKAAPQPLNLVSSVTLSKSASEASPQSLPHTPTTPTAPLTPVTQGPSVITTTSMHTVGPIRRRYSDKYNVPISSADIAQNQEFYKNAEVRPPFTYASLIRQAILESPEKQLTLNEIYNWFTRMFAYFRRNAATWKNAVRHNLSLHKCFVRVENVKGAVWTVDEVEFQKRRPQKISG
Procedure, shortened: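 Protein and DNA were mixed at 0.4 µM and 0.1 µM and held for 30 min at room temperature in Tris pH 7.5 buffer with NaCl and MgCl2; the protein was a His6-MBP-tagged, N-terminally truncated mouse FoxP3 or FoxP1 fragment from E. coli, and the DNA a Klenow-filled double-stranded degenerate library. Amylose resin captured the complexes, which were washed three times. Binding is read as reads-per-million enrichment of pull-down versus input after Illumina sequencing, with replicates pooled.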

**Q.** For “GATGATTGTTCTCCCAGCTGATGAATTTGAACGTTCGAGTAAACAAATTTTCCTAATCTTTCTGTTCAAGCGCCATCTAC”, which binding signal is on record?
**A.** 0.841 RPM ratio (pull-down/input)

**Q.** How did the binding signal turn out when “GATGATTGTTCTCCCAGCTGATGAATTGGGTTATTCGAGTAAACAAATTTTCCTAATCTTTCTGTTCAAGCGCCATCTAC” was run?
**A.** 0.925 RPM ratio (pull-down/input)

**Q.** How did the binding signal turn out when “GATGATTGTTCTCCCAGCTGATGAATTGCCTACGTCGAGTAAACAAATTTTCCTAATCTTTCTGTTCAAGCGCCATCTAC” was run?
**A.** 0.991 RPM ratio (pull-down/input)

**Q.** How did the binding signal turn out when “GATGATTGTTCTCCCAGCTGATGAATTAGGTAGGTCGAGTAAACAAATTTTCCTAATCTTTCTGTTCAAGCGCCATCTAC” was run?
**A.** 0.851 RPM ratio (pull-down/input)

**Q.** Which binding signal does the source give for “GATGATTGTTCTCCCAGCTGATGAATTTTGTGTATCGAGTAAACAAATTTTCCTAATCTTTCTGTTCAAGCGCCATCTAC” here?
**A.** 2.15 RPM ratio (pull-down/input)

**Q.** How did the binding signal turn out when “GATGATTGTTCTCCCAGCTGATGAATTTCAAGGGTCGAGTAAACAAATTTTCCTAATCTTTCTGTTCAAGCGCCATCTAC” was run?
**A.** 0.748 RPM ratio (pull-down/input)

**Q.** How did the binding signal turn out when “GATGATTGTTCTCCCAGCTGATGAATTAACTGATTCGAGTAAACAAATTTTCCTAATCTTTCTGTTCAAGCGCCATCTAC” was run?
**A.** 0.953 RPM ratio (pull-down/input)

**Q.** For “GATGATTGTTCTCCCAGCTGATGAATTATGTCTTTCGAGTAAACAAATTTTCCTAATCTTTCTGTTCAAGCGCCATCTAC”, which binding signal is on record?
**A.** 1.06 RPM ratio (pull-down/input)

**Q.** For “GATGATTGTTCTCCCAGCTGATGAATTGCATACCTCGAGTAAACAAATTTTCCTAATCTTTCTGTTCAAGCGCCATCTAC”, which binding signal is on record?
**A.** 1.12 RPM ratio (pull-down/input)

**Q.** For “GATGATTGTTCTCCCAGCTGATGAATTTATCACCTCGAGTAAACAAATTTTCCTAATCTTTCTGTTCAAGCGCCATCTAC”, which binding signal is on record?
**A.** 1.03 RPM ratio (pull-down/input)

**Q.** “GATGATTGTTCTCCCAGCTGATGAATTGCCAAGCTCGAGTAAACAAATTTTCCTAATCTTTCTGTTCAAGCGCCATCTAC” was tested. Which binding signal did it give?
**A.** 0.899 RPM ratio (pull-down/input)

**Q.** With “GATGATTGTTCTCCCAGCTGATGAATTCCGTAGTTCGAGTAAACAAATTTTCCTAATCTTTCTGTTCAAGCGCCATCTAC” as the sequence, how does the binding signal read?
**A.** 0.834 RPM ratio (pull-down/input)

**Q.** Which binding signal does the source give for “GATGATTGTTCTCCCAGCTGATGAATTTCGGGGTTCGAGTAAACAAATTTTCCTAATCTTTCTGTTCAAGCGCCATCTAC” here?
**A.** 0.791 RPM ratio (pull-down/input)

**Q.** How did the binding signal turn out when “GATGATTGTTCTCCCAGCTGATGAATTAACGAAGTCGAGTAAACAAATTTTCCTAATCTTTCTGTTCAAGCGCCATCTAC” was run?
**A.** 0.89 RPM ratio (pull-down/input)

**Q.** How did the binding signal turn out when “GATGATTGTTCTCCCAGCTGATGAATTATTTTCATCGAGTAAACAAATTTTCCTAATCTTTCTGTTCAAGCGCCATCTAC” was run?
**A.** 1.27 RPM ratio (pull-down/input)

**Q.** How did the binding signal turn out when “GATGATTGTTCTCCCAGCTGATGAATTCCCTAAATCGAGTAAACAAATTTTCCTAATCTTTCTGTTCAAGCGCCATCTAC” was run?
**A.** 1.05 RPM ratio (pull-down/input)

**Q.** How did the binding signal turn out when “GATGATTGTTCTCCCAGCTGATGAATTTTCGATATCGAGTAAACAAATTTTCCTAATCTTTCTGTTCAAGCGCCATCTAC” was run?
**A.** 0.979 RPM ratio (pull-down/input)

**Q.** “GATGATTGTTCTCCCAGCTGATGAATTATTCCGTTCGAGTAAACAAATTTTCCTAATCTTTCTGTTCAAGCGCCATCTAC” was tested. Which binding signal did it give?
**A.** 1.07 RPM ratio (pull-down/input)

**Q.** For “GATGATTGTTCTCCCAGCTGATGAATTAAACGATTCGAGTAAACAAATTTTCCTAATCTTTCTGTTCAAGCGCCATCTAC”, which binding signal is on record?
**A.** 0.876 RPM ratio (pull-down/input)

**Q.** How did the binding signal turn out when “GATGATTGTTCTCCCAGCTGATGAATTGCTAGTATCGAGTAAACAAATTTTCCTAATCTTTCTGTTCAAGCGCCATCTAC” was run?
**A.** 1.18 RPM ratio (pull-down/input)

**Q.** For “GATGATTGTTCTCCCAGCTGATGAATTATTCACTTCGAGTAAACAAATTTTCCTAATCTTTCTGTTCAAGCGCCATCTAC”, which binding signal is on record?
**A.** 1.05 RPM ratio (pull-down/input)

**Q.** “GATGATTGTTCTCCCAGCTGATGAATTACCCCGATCGAGTAAACAAATTTTCCTAATCTTTCTGTTCAAGCGCCATCTAC” was tested. Which binding signal did it give?
**A.** 0.986 RPM ratio (pull-down/input)

**Q.** Which binding signal does the source give for “GATGATTGTTCTCCCAGCTGATGAATTGGGGGACTCGAGTAAACAAATTTTCCTAATCTTTCTGTTCAAGCGCCATCTAC” here?
**A.** 0.787 RPM ratio (pull-down/input)

**Q.** Which binding signal does the source give for “GATGATTGTTCTCCCAGCTGATGAATTGAGGTTATCGAGTAAACAAATTTTCCTAATCTTTCTGTTCAAGCGCCATCTAC” here?
**A.** 0.966 RPM ratio (pull-down/input)

**Q.** Which binding signal does the source give for “GATGATTGTTCTCCCAGCTGATGAATTCGGTCTGTCGAGTAAACAAATTTTCCTAATCTTTCTGTTCAAGCGCCATCTAC” here?
**A.** 0.775 RPM ratio (pull-down/input)

**Q.** “GATGATTGTTCTCCCAGCTGATGAATTGATAACCTCGAGTAAACAAATTTTCCTAATCTTTCTGTTCAAGCGCCATCTAC” was tested. Which binding signal did it give?
**A.** 1 RPM ratio (pull-down/input)

**Q.** How did the binding signal turn out when “GATGATTGTTCTCCCAGCTGATGAATTGCGTATATCGAGTAAACAAATTTTCCTAATCTTTCTGTTCAAGCGCCATCTAC” was run?
**A.** 1.23 RPM ratio (pull-down/input)

**Q.** Which binding signal does the source give for “GATGATTGTTCTCCCAGCTGATGAATTAACGCCATCGAGTAAACAAATTTTCCTAATCTTTCTGTTCAAGCGCCATCTAC” here?
**A.** 0.943 RPM ratio (pull-down/input)

**Q.** For “GATGATTGTTCTCCCAGCTGATGAATTAGGCGTGTCGAGTAAACAAATTTTCCTAATCTTTCTGTTCAAGCGCCATCTAC”, which binding signal is on record?
**A.** 0.926 RPM ratio (pull-down/input)

**Q.** With “GATGATTGTTCTCCCAGCTGATGAATTGGATGTATCGAGTAAACAAATTTTCCTAATCTTTCTGTTCAAGCGCCATCTAC” as the sequence, how does the binding signal read?
**A.** 1.1 RPM ratio (pull-down/input)

**Q.** How did the binding signal turn out when “GATGATTGTTCTCCCAGCTGATGAATTCTCGCTATCGAGTAAACAAATTTTCCTAATCTTTCTGTTCAAGCGCCATCTAC” was run?
**A.** 1.05 RPM ratio (pull-down/input)

— paper PMC12820563, “FoxP3 forms a head-to-head dimer in vivo and stabilizes its multimerization on adjacent microsatellites”
